Reference: ChEMBL document CHEMBL3826904, “Ionic liquid-promoted multicomponent synthesis of fused tetrazolo[1,5-a]pyrimidines as α-glucosidase inhibitors” (Bioorg Med Chem Lett, 2016)

Experiments:
[1] = compound: COc1ccc(-c2ccnc3nnnn23)cc1; assay: (§1) Mixed-uncompetitive type inhibition of yeast alpha-glucosidase MAL12 at 25 uM using 4-nitrophenyl-alpha-D-glucopyranoside as substrate assessed as substrate Km preincubated for 30 mins followed by substrate addition measured after 10 mins by Lineweaver-Burk plot analysis (reference value: 0.478 uM); conditions: Saccharomyces cerevisiae
[2] = compound: Cc1ccc(-c2ccnc3nnnn23)cc1; assay: as §1; conditions: Saccharomyces cerevisiae

B1: Alpha-glucosidase MAL12 (Saccharomyces cerevisiae S288c), P53341 (protein)
chain: MTISDHPETEPKWWKEATIYQIYPASFKDSNNDGWGDLKGITSKLQYIKDLGVDAIWVCPFYDSPQQDMGYDISNYEKVWPTYGTNEDCFELIDKTHKLGMKFITDLVINHCSTEHEWFKESRSSKTNPKRDWFFWRPPKGYDAEGKPIPPNNWKSFFGGSAWTFDETTNEFYLRLFASRQVDLNWENEDCRRAIFESAVGFWLDHGVDGFRIDTAGLYSKRPGLPDSPIFDKTSKLQHPNWGSHNGPRIHEYHQELHRFMKNRVKDGREIMTVGEVAHGSDNALYTSAARYEVSEVFSFTHVEVGTSPFFRYNIVPFTLKQWKEAIASNFLFINGTDSWATTYIENHDQARSITRFADDSPKYRKISGKLLTLLECSLTGTLYVYQGQEIGQINFKEWPIEKYEDVDVKNNYEIIKKSFGKNSKEMKDFFKGIALLSRDHSRTPMPWTKDKPNAGFTGPDVKPWFLLNESFEQGINVEQESRDDDSVLNFWKRALQARKKYKELMIYGYDFQFIDLDSDQIFSFTKEYEDKTLFAALNFSGEEIEFSLPREGASLSFILGNYDDTDVSSRVLKPWEGRIYLVK
Which results are given for B1?
Km [1]: 1.15 µM; Km [2]: 3.76 µM
